Source: patent publication US20190233519A1 (published 2019)

B1: A34311VH11 HCAb (Fc fusion)
heavy: EVQLVESGGGVVQPGRSLRLSCAASGRTITTITMGWFRQAPGKGREFVASHSWTDNNPYYADSVKGRFTISRDNAKNTLYLQMNSLRPEDTAVYYCAATARRSFVGRQWYTEARQYDYWGQGTLVTVSS[gap - human IgG1 Fc]
B2: AS07014VH11G54 HCAb (Fc fusion)
heavy: EVQLVESGGGLVQPGGSLRLSCAASGYTYSRHCLGWFRQAPGKGREAVSTIDSGGSTSYADSVKGRFTISRDNAKNTLYLQMNSLRPEDTAVYYCAIGPNPRYCSGAPNTRGAEHYFGYWGQGTLVTVSS[gap - human IgG1 Fc]
B3: AS07014VH11SGA HCAb (Fc fusion)
heavy: B2 heavy with D52S, N109A
B4: AS07014VH11 HCAb (Fc fusion)
heavy: B2 heavy with G54D
B5: AS07014VH11SGS HCAb (Fc fusion)
heavy: B2 heavy with D52S, N109S
B6: AS07014VH11SGQ HCAb (Fc fusion)
heavy: B2 heavy with D52S, N109Q
B7: AS07189TKDVH11 HCAb (Fc fusion)
heavy: EVQLVESGGGLVQPGGSLRLSCAASGDSPSVNYMGWFRQAPGKGREEVSSIYPTGGTFYTDSVKGRFTISRDNAKNTLYLQMNSLRPEDTAVYYCAAGKWGTDYWGQGTLVTVSS[gap - human IgG1 Fc]
B8: AS07189TKDVH11F27 HCAb (Fc fusion)
heavy: B7 heavy with D27F
B9: A34311 HCAb (Fc fusion)
heavy: QVKLEESGGGLVLPGESLRLSCEASGRTITTITMGWFRQAPGKERQFVASHSWTDNNPYYADSVKGRFIISRDNAGNRVYLQMHSLEPEDTAVYYCAATARRSFVGRQWYTEARQYDYWGQGTQVTVSS[gap - human IgG1 Fc]

What follows are binders tested against CTLA-4-His protein (UniProt P16410 37-161) (assay: SPR).

| Kd [nM] | Binder |
| --- | --- |
| 15 | B1 |
| 5.8 | B2 |
| 11 | B3 |
| 3.8 | B4 |
| 12 | B5 |
| 11 | B6 |
| 5.7 | B7 |
| 4.3 | B8 |

These binders were tested against human CTLA-4 expressed on CHO cells (UniProt P16410 37-223) (assay: FACS cell binding).

| EC50 [nM] | Binder |
| --- | --- |
| 3.1 | B1 |
| 2.6 | B3 |
| 4.3 | B4 |
| 2.4 | B6 |
| 4.4 | B7 |
| 4.1 | B8 |

Each binder was assayed against T1, biotin-labeled hCTLA-4/Fc protein (UniProt P16410 37-161, biotin label in the FACS competition assays (sites not given)) (assay: FACS ligand competition).

| IC50 [nM] | Binder |
| --- | --- |
| 3.5 | B1 |
| 4.1 | B4 |
| 6.9 | B9 |
| 5.1 | B7 |

These binders were tested against T1, biotin-labeled hCTLA-4/Fc protein (assay: FACS ligand competition (B7-1 cells)).
T1 sequence (P16410 37-161): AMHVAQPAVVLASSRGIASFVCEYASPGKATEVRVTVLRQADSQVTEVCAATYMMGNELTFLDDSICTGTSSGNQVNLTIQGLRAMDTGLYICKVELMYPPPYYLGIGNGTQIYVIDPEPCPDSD

| IC50 [nM] | Binder |
| --- | --- |
| 6.86 | B9 |

Molecular target: T1, biotin-labeled hCTLA-4/Fc protein
Assay: FACS ligand competition (B7-1 cells)
Remark: another data set of the same source

| EC50 [nM] | Binder |
| --- | --- |
| 19.8 | B9 |

Residue numbers refer to the chain shown, from its start.
